Laboratory results as given in PubChem BioAssay AID651820 (National Center for Advancing Translational Sciences (NCATS), 2012).
Screen size: about 340,000 compounds; about 12,000 (3.5%) were called active. Inconclusive results, whose numbers are uncertain, are shown with a selection of clear calls. Calls follow the shape of the dose curve; as a rule, active = well fitted inhibition curve with a large enough effect; inconclusive = small, poorly fitted or top-dose-only effect, or another doubt; inactive = no such curve, though single readings can be large or run the other way. Potencies of inconclusive entries are left out as doubtful fits.

Assay: qHTS Assay for Inhibitors of Hepatitis C Virus (HCV)
Conditions: Huh7.5.1 HCVcc-Cre (HCVcc is cell-culture hepatitis C virus) infection, luciferase reporter, 44 h; activity change, negative = inhibition: at 41.8 µM (top of the series) unless noted
Outline: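 Cells seeded at 1,000/well and cultured 4 h, then compounds added followed by HCVcc-Cre virus (~0.5 moi). After 44 h further culture, luciferase substrate was added, plates held 15 min at room temperature, and luminescence read for 15 sec.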
% is scaled to controls: 0 for no effect and ±100 for the full control effect; potency is read from the fitted curve at half-maximal effect; tags tell the direction and shape of the fitted curve.

SMILES	Potency	activity change, negative = inhibition
CCc1ccccc1N(C1=NCCCS1)S(=O)(=O)c1ccc(C(C)(C)C)cc1	inconclusive [inhibitor, partial curve]	
COc1ccc(NC(=S)NC(=NS(=O)(=O)c2ccc(Cl)cc2)c2ccccc2)cc1	inconclusive [inhibitor, single point]	
Cc1ccc2c(c1)N(Cc1cccc(Cl)c1)C(=O)c1cccnc1O2		inconclusive: -34.5% [inhibitor]
CCOC(=O)N1CCN(C(=O)c2ccc3c(c2)N(Cc2ccc(F)cc2)CCS3)CC1	inconclusive [inhibitor, single point]	
Cc1cccc(N(CC(=O)NCCSc2ccccn2)S(=O)(=O)c2ccccc2)c1	inconclusive [inhibitor, single point]	
Cc1noc(C)c1CSCC(=O)Nc1cc(C(F)(F)F)ccc1N1CCCCC1	inconclusive [inhibitor, partial curve, poor fit]	
O=C(O)CSc1ncnc2c1oc1ccccc12		inactive: 6.07%
COC(=O)Cc1ccc(OCC(=O)Nc2ccc(OC(F)(F)F)cc2)cc1	inconclusive [inhibitor, single point]	
Cc1nc([N+](=O)[O-])cn1CC(=O)Nc1ccc([N+](=O)[O-])cc1		inactive: 4.91%
Cc1ccc(S(=O)(=O)N(CC(=O)NCCSc2ccccn2)c2cc(C)cc(C)c2)cc1	inconclusive [inhibitor, single point]	
CC1CCCN(S(=O)(=O)c2ccc(C(=O)Nc3nnc(-c4ccncc4)o3)cc2)C1 (stereo not drawn)	inconclusive [inhibitor, single point]	
Oc1ccc(NC(=S)N=Nc2c(O)[nH]c3ccccc23)cc1	inconclusive [inhibitor, single point]	
O=C(NCCc1ccc(Cl)cc1)C1CCN(S(=O)(=O)N2CCCCC2)CC1	inconclusive [inhibitor, partial curve]	
CC(=O)Nc1ccc(-c2csc(NC(=O)C3CSC4(C)CCC(=O)N34)n2)cc1 (stereo not drawn)		inactive: -14.6%
Cc1cccc(N2CCc3c2nc2ccc(Br)cc2c3N)c1	active: 10 µM	
Cc1ccc(C(CC(=O)O)NC(=O)c2ccc(S(=O)(=O)N3CCCC3)cc2)cc1 (stereo not drawn)		inconclusive: -101% [inhibitor]
CCCCc1cc(=O)oc2cc(OS(C)(=O)=O)ccc12	inconclusive [inhibitor, single point]	
CN(CCOC(=O)c1ccc2c(c1)OCCO2)Cc1ccccc1		inactive: -15.6%
COC(=O)c1ccccc1NC(=O)Cn1nnc(-c2ccc3c(c2)OCO3)n1		inactive: 21.2%
CCOC(=O)CN(C(=O)Cn1nnc(-c2ccc(OC)cc2)n1)C(C(=O)NC1CCCC1)c1ccc(F)cc1 (stereo not drawn)	inconclusive [inhibitor, partial curve, poor fit]	
Cc1cc(C=C2C(=O)N(C)C(=S)N(C)C2=O)c(C)n1-c1cccnc1		inactive: 9.17%
COc1ccc(C2C(=O)c3ccccc3C2=Nc2ccc(Br)cc2)cc1 (stereo not drawn)		inactive: -7.32%
O=C(NCCc1ccc(Cl)cc1)c1ccc(S(=O)(=O)N2CCCC2)cc1	inconclusive [inhibitor, partial curve]	

SMILES	Potency	activity change, negative = inhibition
OCC[C@H]1C[C@H](O)[C@@H](O)[C@]2(CCCc3ccccc3O2)O1		inactive: 10.5%
COc1ccc(S(=O)(=O)N2CCOCC2)cc1NC(=O)c1cccc2c(=O)c(C)c(-c3ccccc3)oc12	inconclusive [inhibitor, full curve]	
CCc1nnc(NC(=O)c2cccnc2)s1		inactive: -24.6%
CC(=O)Nc1ccc(Oc2cc(C#N)c(C#N)cc2N2CCCCCC2)cc1	inconclusive [inhibitor, partial curve, poor fit]	
CNC(=O)c1c(NC(=O)c2ccc(S(=O)(=O)N3CCCc4ccccc43)cc2)sc2c1CCN(C)C2	inconclusive [inhibitor, single point]	
N#CCOc1nc(N2CCCC2)nc(N2CCCC2)n1	inconclusive [inhibitor, partial curve]	
CC1CCCC(=NNc2ccc3ccccc3n2)C1 (stereo not drawn)		inactive: -1.25%
COCCNC(=O)C(c1ccc(C)o1)N(C(=O)c1snc(C(N)=O)c1N)c1ccc(C)c(C)c1 (stereo not drawn)	inactive	
COCCn1nnnc1C(c1ccccc1)N1CCN(c2ccccc2)CC1 (stereo not drawn)		inactive: -23%
CCN(CC)CCc1c(C)[nH]c(C(=O)OCc2ccccc2)c1C	inconclusive [inhibitor, single point]	
CCCCCCSc1ccc([C@H]2N[C@@](C)(C(=O)OC)[C@H]3C(=O)N(C)C(=O)[C@@H]23)cc1	inconclusive [inhibitor, single point]	
Cc1ccc(S(=O)(=O)CCC(=O)c2cccc([N+](=O)[O-])c2)cc1	inconclusive [inhibitor, single point]	
COc1ccc(CN(CCNC(=O)CCCCC(=O)NCCN(Cc2ccc(OC)cc2)C(C)C)C(C)C)cc1	active: 11.2 µM	
CN(CC(=O)Nc1ccccc1Br)CC(=O)Nc1ccccc1-c1ccccc1	inconclusive [inhibitor, single point]	
CCN1C[C@@H]2[C@@H]3C(=O)N(C)C(=O)[C@@H]3[C@](C)(C1=O)N2C(=O)c1ccc(C)cc1		inactive: -1.8%
CC(=O)Oc1ccc2c(=O)oc(-c3ccccc3C)nc2c1		inactive: 3.8%
COc1ccccc1CC(Cc1nc2ccccc2[nH]1)c1nc2ccccc2[nH]1 (stereo not drawn)	inconclusive [inhibitor, single point]	
CCCCCNC(=O)c1ccc2c(=O)n(CCCN3CCCC3=O)c(=S)[nH]c2c1	inconclusive [inhibitor, single point]	
CCOc1cc2c3c(c1)C1(C(=O)N3C(C)(C)C=C2C)C(C#N)=C(N)Oc2cc(O)ccc21 (stereo not drawn)	inconclusive [inhibitor, single point]	
CCOC(=O)C1CCN(S(=O)(=O)c2c(C)noc2C)CC1	inconclusive [inhibitor, single point]	
CC(C)(C)OC(=O)NCCCCCNC(=O)c1nc[nH]c1C(=O)NCc1ccc(CNC(=O)OC(C)(C)C)cc1	active: 8.91 µM	
Cc1onc(C(=O)N2CCN(C(c3ccccc3)c3ccccc3)CC2)c1[N+](=O)[O-]	inconclusive [inhibitor, partial curve]	
COCC1CCCN(C(=O)c2cc(COc3cncc(Cl)c3)on2)C1 (stereo not drawn)	inconclusive [inhibitor, single point]	

SMILES	Potency	activity change, negative = inhibition
CC(=O)Nc1cccc(NC(=O)c2cccc(-c3ccc(O)cc3)c2)c1	inconclusive [inhibitor, single point]	
CCOc1ccc(S(=O)(=O)NCCC(=O)OCC(=O)N2CC(=O)Nc3ccccc32)cc1		inactive: 14.9%
COc1ccc(CCn2c(=N)c(S(=O)(=O)c3ccccc3)cc3c(=O)n4ccccc4nc32)cc1		inactive: -12.8%
N#C/C(=C\c1c(F)cccc1Cl)S(=O)(=O)c1ccccn1		inactive: 15.9%
Cc1ccc(C(=O)O/N=C(\N)c2cccc([N+](=O)[O-])c2)cc1		inactive: 1.91%
COc1ccc2cc(CN(CC3CCCO3)C(=S)Nc3ccccc3)c(=O)[nH]c2c1 (stereo not drawn)	inconclusive [inhibitor, single point]	
CCOC(=O)c1ccc(NC(=O)CSc2nc(=O)n3cccc(C)c3n2)cc1	inconclusive [inhibitor, single point]	
CS(=O)(=O)N1CCN(c2ccc(C(=O)N3CCOCC3)cc2[N+](=O)[O-])CC1		inactive: 19%
COCCNc1nc(-n2nc(C)cc2C)nc2sc3c(c12)CCCC3	active: 10 µM	
Cc1cc(C)nc(SCCn2c(N3CC(C)OC(C)C3)nc3c2c(=O)n(C)c(=O)n3C)n1 (stereo not drawn)		inactive: 14%
S=C(NCc1ccccc1)N1CCN(Cc2ccc3c(c2)OCO3)CC1		inactive: 2.59%
CCOC(=O)c1c(NC(=O)C2COc3ccccc3O2)sc2c1CCN(Cc1ccccc1)C2 (stereo not drawn)	inconclusive [inhibitor, partial curve]	
COc1ccc(NC(=O)CN(C)C(=O)Cc2ccc(-c3ccccc3)cc2)cc1	inconclusive [inhibitor, partial curve]	
CC(=O)Nc1ccc(-c2nnc(SCc3ccc(C)cc3)n2C)cc1	inconclusive [inhibitor, single point]	
Cc1ccc(C2(c3noc(CN(C)CC4CCCCO4)n3)CCCC2)cc1 (stereo not drawn)	inconclusive [inhibitor, single point]	
O=C(NCC1CC1)c1onc(CSc2nc3ccccc3[nH]2)c1C(=O)NCC1CC1		inactive: -12.7%
N#CC1=C(N)C(C#N)(C#N)[C@H](c2cccnc2)[C@H]2CN(C(=O)OCc3ccccc3)CC=C12		inactive: -20.7%
CCOC(=O)C1C(=O)C=C(c2ccc([N+](=O)[O-])cc2)CC1c1ccccc1 (stereo not drawn)	inconclusive [inhibitor, partial curve]	
N#Cc1c(-c2ccc(Cl)cc2)n(O)c2ccccc12	inconclusive [inhibitor, full curve, poor fit]	
O=C(Nc1sc2c(c1C(=O)NCCCO)CCCC2)c1ccccc1	inconclusive [inhibitor, partial curve]	
Cc1cc(=O)oc2cc(NC(=O)C(C)Oc3cccc(Cl)c3)ccc12 (stereo not drawn)	inconclusive [inhibitor, full curve, poor fit]	
CCOC(=O)c1c(CSc2cccs2)n(C)c2cc(Br)c(O)c(CN(C)C)c12	inconclusive [inhibitor, single point]	
